# Measured values as given in the BET-seq Pho4 binding data (Le et al. 2018).
# The list shows a part of the results. These are noisy estimates, calculated here from bound and input reads.
# Biological target: T1, Pho4 (S. cerevisiae) (UniProt P07270)
# T1 sequence: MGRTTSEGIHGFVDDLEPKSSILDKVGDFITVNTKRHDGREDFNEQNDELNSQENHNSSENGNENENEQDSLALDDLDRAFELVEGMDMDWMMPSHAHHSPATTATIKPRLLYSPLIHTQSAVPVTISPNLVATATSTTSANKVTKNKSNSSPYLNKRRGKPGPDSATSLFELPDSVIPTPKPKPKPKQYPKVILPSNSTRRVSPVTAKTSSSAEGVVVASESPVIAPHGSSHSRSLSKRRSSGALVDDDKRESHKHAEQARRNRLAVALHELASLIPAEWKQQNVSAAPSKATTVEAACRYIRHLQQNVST
# Experiment: relative binding free energy (BET-seq); higher = weaker binding
# Conditions: reference: library average
row,Sequence,relative binding free energy [kcal/mol]
1,AGATTCACGTGTGAGG,0.44
2,CTGTTCACGTGTTCTT,0.22
3,TGGATCACGTGAGGTC,0.29
4,GTAAACACGTGGGCGG,0.1
5,TGAAACACGTGATTTG,0.11
6,TTCTTCACGTGTTTGG,0.26
7,TTTAACACGTGTTACG,0.06
8,TGGGGCACGTGAGCTA,0.11
9,GGTGACACGTGAGTTA,0.34
10,CATGACACGTGAGGGT,0.24
11,CGTTGCACGTGCGTAT,-0.09
12,TGTTACACGTGTTTCG,0.14
13,GTCTTCACGTGAGTCT,0.47
14,TGTGGCACGTGTCAAA,-0.07
15,AAATTCACGTGAGGTT,0.38
16,TGTGTCACGTGTTAAG,0.12
17,AAGGTCACGTGAGATG,0.41
18,GGGGGCACGTGAGAAG,0.13
19,CGTAGCACGTGAGGGG,0.1
20,AGAGGCACGTGTGTAA,-0.01
21,TTGCTCACGTGTAGTT,0.09

row,Sequence,relative binding free energy [kcal/mol]
1,TTCTTCACGTGTTTGA,0.21
2,TGGGACACGTGGATGC,0.04
3,ATAACCACGTGTGGTG,-0.08
4,GAATGCACGTGTGTAG,0.15
5,GGTAACACGTGGCGAG,0.12
6,TTAGTCACGTGATATC,0.2
7,TGGCGCACGTGCGTGA,-0.23
8,TAGTACACGTGATGTA,0.08
9,TATAGCACGTGTCAGG,-0.09
10,CTGTTCACGTGATAAG,0.33
11,CGGTCCACGTGTTGGA,0.02
12,CAGTTCACGTGGTATG,0.29
13,ATTGACACGTGTATGA,0.04
14,TACTTCACGTGTTATG,0.06
15,TTGTGCACGTGTCGGA,0.04
16,GGATACACGTGTTATG,0.13
17,TTTGCCACGTGTGTGT,-0.14
18,TGAGACACGTGAACGG,0.29
19,GGTGTCACGTGAGTTG,0.28
20,TGTGGCACGTGCGCAG,-0.2
21,AGTCGCACGTGTGTGC,-0.02

row,Sequence,relative binding free energy [kcal/mol]
1,TCTGTCACGTGGTTTC,0.12
2,GTACCCACGTGGGGGT,-0.12
3,ATGTCCACGTGGGCTG,-0.06
4,TATTCCACGTGGCGTT,0.07
5,AGGGACACGTGGGCGT,-0.22
6,AAAGTCACGTGAGGAA,0.6
7,ACGTGCACGTGTTATT,-0.14
8,ATCTTCACGTGTGATG,0.44
9,GATTTCACGTGCTTTT,0.21
10,TGGGCCACGTGCGTAG,-0.21
11,TAGTGCACGTGAGCGA,0.17
12,AGTTGCACGTGGTTTG,0
13,CCGAGCACGTGGGTGG,-0.34
14,TGTGTCACGTGGCGCT,0.05
15,TATGACACGTGGGTCG,-0.24
16,CGTGGCACGTGGATGA,0.03
17,AGCGGCACGTGGGTAA,-0.3
18,GAGGTCACGTGTGGGC,0.22
19,CTTAACACGTGATGGG,0.07
20,GTTGGCACGTGCGTGT,-0.07
21,TTTTTCACGTGCAGGA,0.41
